# Results reported in the supplement of paper PMC8728848.
# The list shows a part of the results.
# B1: 7WC (Trifolium repens) (protein)
# chain: MGTITSYAVVFDAGSTGSRVHVYHFDQNLDLLHIGKDVEFYNKIQPGLSAYADNPEQAAKSLIPLLEQAENVVPEDFHSKTPIRLGATAGLRLLDGDASERILQAVRDMLNNKSTFNVQPDAVSIIDGTQEGSYLWVTINYVLGNLGKRFTNTVGVIDLGGGSVQMAYAVSKKTARNAPKVTDGEDPYIKKIVLKGKPYDLYVHSYLHFGREASRAEILKVTHGSASPCILAGFDGIYTYSGEEFKASAPTSGANFDKCKKIIQKALKLDYPCPYQNCTFGGIWNGGGGSGQKKLFAASSFFYLPQDVGMVDPNKSNLKLRPVDLENKAKIVCTLNVEDVKSAYPLLEKFNIVPYACMDLIYQYELLVDGFGLDPLQEITAGEKIEYQEALVDAAWALGNAVEAVLLLPKFERLMYFVVEHHHHHH
# Key:
# Assay in all cases: glycan array binding signal (z-score within array); higher = stronger binding
# Details in all cases: glycan notation: IUPAC condensed, linker removed
# Gal(a1-4)GlcNAc = target: Gal(a1-4)GlcNAc
# Procedure, shortened: (§1)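 The binding signal is a Z-score computed within each array and averaged over linkers. Arrays of the same protein sequence at different concentrations or buffers were also averaged together. Data originate from 3228 arrays in the Consortium for Functional Glycomics database, kept only where the protein sequence was available.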
# Gal(a1-6)Glc = target: Gal(a1-6)Glc
# Procedure, shortened: as §1
# Gal(b1-2)Gal = target: Gal(b1-2)Gal
# Procedure, shortened: as §1
# Gal(b1-3)Gal = target: Gal(b1-3)Gal
# Procedure, shortened: as §1
# Gal(b1-3)GalNAc = target: Gal(b1-3)GalNAc
# Procedure, shortened: as §1
# [1] = target: Gal(b1-3)GalNAc(b1-3)Gal(a1-4)Gal(b1-4)Glc
# Procedure, shortened: as §1
# [2] = target: Gal(b1-3)GalNAc(b1-3)Gal(b1-4)Glc
# Procedure, shortened: as §1
# [3] = target: Gal(b1-3)GalNAc(b1-3)Gal(b1-4)GlcNAc
# Procedure, shortened: as §1
# [4] = target: Gal(b1-3)GalNAc(b1-4)Gal(b1-4)Glc
# Procedure, shortened: as §1
# [5] = target: Gal(b1-3)GalNAc(b1-4)[Neu5Ac(a2-3)]Gal(b1-4)Glc
# Procedure, shortened: as §1
# [6] = target: Gal(b1-3)[Fuc(a1-4)]GlcNAc
# Procedure, shortened: as §1
# [7] = target: Gal(b1-3)[Fuc(a1-4)]GlcNAc(b1-3)Gal(b1-4)GlcNAc
# Procedure, shortened: as §1
# [8] = target: Gal(b1-3)[Fuc(a1-4)]GlcNAc(b1-3)Gal(b1-4)[Fuc(a1-3)]GlcNAc
# Procedure, shortened: as §1
# [9] = target: Gal(b1-3)[GlcNAc(b1-6)]GalNAc
# Procedure, shortened: as §1
# [10] = target: Gal(b1-3)[GlcNAc(b1-6)]GlcNAc
# Procedure, shortened: as §1
# [11] = target: Gal(b1-3)[Neu5Ac(a2-6)]GalNAc
# Procedure, shortened: as §1
# [12] = target: Gal(b1-3)[Neu5Ac(a2-6)]GlcNAc
# Procedure, shortened: as §1
# [13] = target: Gal(b1-3)[Neu5Ac(a2-6)]GlcNAc(a1-4)Gal(b1-4)Glc
# Procedure, shortened: as §1
# [14] = target: Gal(b1-3)[Neu5Ac(b2-6)]GlcNAc
# Procedure, shortened: as §1
# [15] = target: Gal(b1-4)GalNAc(a1-3)[Fuc(a1-2)]Gal(b1-4)GlcNAc
# Procedure, shortened: as §1
# [16] = target: Gal(b1-4)GalNAc(b1-3)[Fuc(a1-2)]Gal(b1-4)GlcNAc
# Procedure, shortened: as §1
# Gal(b1-4)Glc = target: Gal(b1-4)Glc
# Procedure, shortened: as §1
# Gal(b1-4)Glc6S = target: Gal(b1-4)Glc6S
# Procedure, shortened: as §1
# Gal(b1-4)GlcNAc = target: Gal(b1-4)GlcNAc
# Procedure, shortened: as §1
# [17] = target: Gal(b1-4)GlcNAc(b1-2)Man(a1-3)[Gal(b1-4)GlcNAc(b1-2)Man(a1-6)]Man(b1-4)GlcNAc(b1-4)GlcNAc
# Procedure, shortened: as §1
# [18] = target: Gal(b1-4)GlcNAc(b1-3)Gal(b1-4)Glc
# Procedure, shortened: as §1
# [19] = target: Gal(b1-4)GlcNAc(b1-3)Gal(b1-4)GlcNAc
# Procedure, shortened: as §1
# [20] = target: Gal(b1-4)GlcNAc(b1-3)Gal(b1-4)GlcNAc(b1-3)Gal(b1-4)GlcNAc
# Procedure, shortened: as §1
# [21] = target: Gal(b1-4)GlcNAc(b1-3)Gal(b1-4)[Fuc(a1-3)]GlcNAc(b1-3)Gal(b1-4)[Fuc(a1-3)]GlcNAc
# Procedure, shortened: as §1
# [22] = target: Gal(b1-4)GlcNAc(b1-3)GalNAc
# Procedure, shortened: as §1
# [23] = target: Gal(b1-4)GlcNAc(b1-3)[Gal(b1-4)GlcNAc(b1-6)]GalNAc
# Procedure, shortened: as §1
# [24] = target: Gal(b1-4)GlcNAc(b1-6)GalNAc
# Procedure, shortened: as §1
# [25] = target: Gal(b1-4)GlcNAc(b1-6)[Gal(b1-3)]GalNAc
# Procedure, shortened: as §1
# [26] = target: Gal(b1-4)GlcNAc(b1-6)[Gal(b1-3)]GlcNAc
# Procedure, shortened: as §1
# Gal3S(b1-3)GalNAc = target: Gal3S(b1-3)GalNAc
# Procedure, shortened: as §1
# Gal3S(b1-3)GlcNAc = target: Gal3S(b1-3)GlcNAc
# Procedure, shortened: as §1
# [27] = target: Gal3S(b1-3)[Fuc(a1-4)]GlcNAc
# Procedure, shortened: as §1
# Gal3S(b1-4)Glc = target: Gal3S(b1-4)Glc
# Procedure, shortened: as §1
# Gal3S(b1-4)Glc6S = target: Gal3S(b1-4)Glc6S
# Procedure, shortened: as §1
# Gal3S(b1-4)GlcNAc = target: Gal3S(b1-4)GlcNAc
# Procedure, shortened: as §1
# Gal3S(b1-4)GlcNAc6S = target: Gal3S(b1-4)GlcNAc6S
# Procedure, shortened: as §1
# Gal3S6S(b1-4)GlcNAc = target: Gal3S6S(b1-4)GlcNAc
# Procedure, shortened: as §1
# Gal3S6S(b1-4)GlcNAc6S = target: Gal3S6S(b1-4)GlcNAc6S
# Procedure, shortened: as §1
# Gal4S(b1-4)GlcNAc = target: Gal4S(b1-4)GlcNAc
# Procedure, shortened: as §1
# Gal4S6S(b1-4)GlcNAc = target: Gal4S6S(b1-4)GlcNAc
# Procedure, shortened: as §1
binder,measurement,setting,value
B1,glycan array binding signal (z-score),Gal(a1-4)GlcNAc,-0.077
same,glycan array binding signal (z-score),Gal(a1-6)Glc,0.374
same,glycan array binding signal (z-score),Gal(b1-2)Gal,-0.144
same,glycan array binding signal (z-score),Gal(b1-3)Gal,0.804
same,glycan array binding signal (z-score),Gal(b1-3)GalNAc,0.029
same,glycan array binding signal (z-score),[1],-0.189
same,glycan array binding signal (z-score),[2],-0.241
same,glycan array binding signal (z-score),[3],-0.426
same,glycan array binding signal (z-score),[4],0.286
same,glycan array binding signal (z-score),[5],-0.291
same,glycan array binding signal (z-score),[6],-0.275
same,glycan array binding signal (z-score),[7],-0.357
same,glycan array binding signal (z-score),[8],1.71
same,glycan array binding signal (z-score),[9],0.32
same,glycan array binding signal (z-score),[10],0.87
same,glycan array binding signal (z-score),[11],-0.464
same,glycan array binding signal (z-score),[12],-0.01
same,glycan array binding signal (z-score),[13],-0.059
same,glycan array binding signal (z-score),[14],-0.157
same,glycan array binding signal (z-score),[15],-0.078
same,glycan array binding signal (z-score),[16],-0.202
same,glycan array binding signal (z-score),Gal(b1-4)Glc,0.385
same,glycan array binding signal (z-score),Gal(b1-4)Glc6S,0.697
same,glycan array binding signal (z-score),Gal(b1-4)GlcNAc,-0.357
same,glycan array binding signal (z-score),[17],-0.511
same,glycan array binding signal (z-score),[18],-0.215
same,glycan array binding signal (z-score),[19],-0.467
same,glycan array binding signal (z-score),[20],-0.52
same,glycan array binding signal (z-score),[21],-0.361
same,glycan array binding signal (z-score),[22],-0.394
same,glycan array binding signal (z-score),[23],-0.194
same,glycan array binding signal (z-score),[24],-0.08
same,glycan array binding signal (z-score),[25],-0.035
same,glycan array binding signal (z-score),[26],0.144
same,glycan array binding signal (z-score),Gal3S(b1-3)GalNAc,0.371
same,glycan array binding signal (z-score),Gal3S(b1-3)GlcNAc,0.078
same,glycan array binding signal (z-score),[27],-0.208
same,glycan array binding signal (z-score),Gal3S(b1-4)Glc,-0.3
same,glycan array binding signal (z-score),Gal3S(b1-4)Glc6S,-0.093
same,glycan array binding signal (z-score),Gal3S(b1-4)GlcNAc,-0.308
same,glycan array binding signal (z-score),Gal3S(b1-4)GlcNAc6S,-0.334
same,glycan array binding signal (z-score),Gal3S6S(b1-4)GlcNAc,-0.404
same,glycan array binding signal (z-score),Gal3S6S(b1-4)GlcNAc6S,-0.418
same,glycan array binding signal (z-score),Gal4S(b1-4)GlcNAc,-0.335
same,glycan array binding signal (z-score),Gal4S6S(b1-4)GlcNAc,0.174
